From PMC6451091
The list shows a part of the results. For part of these data: At the low end of the ranking the order means little. For part of these data: Measured with an extract: partners may take part in the binding.

Columns and labels:
Conditions in all cases: 20 mM HEPES pH 7.9, 100 mM NaCl, 1 mM DTT, 0.2 mg/mL BSA, 0.02% Triton X-100, 2% milk, 0.4 mg/mL salmon testes DNA; 1 h; temperature not stated; high values mean tight binding; double strand, one strand shown; sequences stand for … in GCCTAGCAC…GTGCTAGGTCTTGATTCGCTTGACGCTGCTG
PU.1 (IVT) = PU.1 (IVT) (UniProt P17947); assay: protein-binding microarray (PBM)
[1] = target: PU.1 (endogenous, THP-1 nuclear extract) (UniProt P17947); assay: nuclear extract protein-binding microarray (nextPBM)
[2] = target: T1, FLI1 (endogenous, THP-1 nuclear extract) (UniProt Q01543); assay: as above
T1 sequence: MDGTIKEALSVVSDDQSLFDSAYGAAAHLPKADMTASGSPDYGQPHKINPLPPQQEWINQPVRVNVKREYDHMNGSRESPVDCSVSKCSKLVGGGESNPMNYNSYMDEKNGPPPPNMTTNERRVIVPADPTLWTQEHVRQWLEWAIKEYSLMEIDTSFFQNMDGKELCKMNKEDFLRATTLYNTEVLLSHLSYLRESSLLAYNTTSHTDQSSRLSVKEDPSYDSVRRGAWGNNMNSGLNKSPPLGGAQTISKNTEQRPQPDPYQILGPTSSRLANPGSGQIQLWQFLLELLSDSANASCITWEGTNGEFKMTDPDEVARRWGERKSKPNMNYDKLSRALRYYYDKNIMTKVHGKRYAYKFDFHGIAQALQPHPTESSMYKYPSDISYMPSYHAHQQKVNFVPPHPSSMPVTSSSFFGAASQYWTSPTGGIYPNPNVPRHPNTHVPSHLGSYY

Sequence | binding signal (PU.1 (IVT)) [z-score] | binding signal [1] [z-score] | binding signal [2] [z-score]
GCCATAGGGAAGTGCTCTAG | 4.04 | 4.4 | 1.72
AAAAAGAGGATGTGAAATAA | 4.21 | 4.21 | 1.92
GGGAACAGGAAGTGAAAATG | 5.3 | 5.79 | 5.1
TGGAGGAGGAACTGAAATAC | 2.94 | 2.75 | 1.07
CCAGAGAGGAAGTGTTTGAT | 4.5 | 4.3 | 3.09
TGCAACAGGAAGTGGGGTGT | 4.12 | 4.55 | 5.34
GAGAAGGGGAAGTGACCTTA | 6.07 | 6.62 | 3.41
GATAAGAGGAAGTCCCCTGT | 5.69 | 6.43 | 2.98
TGAAAAGGGAAGTGTGAAAG | 5.09 | 5.57 | 2.12
GGAGACAGGAAGTGACTTGT | 3.62 | 3.96 | 5.39
GAGGGGAGGAACTGGCAGTG | 0.922 | 1.38 | 0.57
GAAAAAAGGAAGTGGCAAGC | 6.35 | 6.57 | 2.97
CAAAAAGTGAAGTGGATGCT | 1.81 | 1.43 | 0.507
AGCAAAGGGAAGTGGGGAGA | 2.95 | 2.81 | 1.73
GATAAGAGGAAGTCCGCTGT | 5.74 | 6.39 | 2.82
AAGAGGAGGAAGTGAGAGAG | 4.33 | 4.26 | 2.53
GAAAAGAGGAAGTGAGAAAC | 8.29 | 7.38 | 4.18
TGGGAAAGGAAGTGATAAGT | 2.29 | 1.98 | 2.5
AGAAAGAGGAAATGTGTTTG | 4.86 | 4.94 | 2.49
TCAACATGGAAGTACTGTGC | 1.95 | 1.56 | 0.651
CTTTTGAGGAACTGCCAGAC | 3.68 | 3.83 | 0.81
